Results as given in paper PMC4336329 (PLoS ONE, 2015).
In all, about 310,000 compounds went through this assay and about 14,000 (4.5%) showed an effect of 50% or more. The effect is printed as a negative number. This is one part of the list.

Target: human ether-à-go-go-related gene (hERG) potassium channel (human, UniProt Q12809)
Assay: primary screen, population patch clamp on CHO cells stably expressing hERG
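Further: peak tail current of the secondary pulse compared with the same well before compound.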

Chain of human ether-à-go-go-related gene (hERG) potassium channel (Q12809 whole entry, looked up): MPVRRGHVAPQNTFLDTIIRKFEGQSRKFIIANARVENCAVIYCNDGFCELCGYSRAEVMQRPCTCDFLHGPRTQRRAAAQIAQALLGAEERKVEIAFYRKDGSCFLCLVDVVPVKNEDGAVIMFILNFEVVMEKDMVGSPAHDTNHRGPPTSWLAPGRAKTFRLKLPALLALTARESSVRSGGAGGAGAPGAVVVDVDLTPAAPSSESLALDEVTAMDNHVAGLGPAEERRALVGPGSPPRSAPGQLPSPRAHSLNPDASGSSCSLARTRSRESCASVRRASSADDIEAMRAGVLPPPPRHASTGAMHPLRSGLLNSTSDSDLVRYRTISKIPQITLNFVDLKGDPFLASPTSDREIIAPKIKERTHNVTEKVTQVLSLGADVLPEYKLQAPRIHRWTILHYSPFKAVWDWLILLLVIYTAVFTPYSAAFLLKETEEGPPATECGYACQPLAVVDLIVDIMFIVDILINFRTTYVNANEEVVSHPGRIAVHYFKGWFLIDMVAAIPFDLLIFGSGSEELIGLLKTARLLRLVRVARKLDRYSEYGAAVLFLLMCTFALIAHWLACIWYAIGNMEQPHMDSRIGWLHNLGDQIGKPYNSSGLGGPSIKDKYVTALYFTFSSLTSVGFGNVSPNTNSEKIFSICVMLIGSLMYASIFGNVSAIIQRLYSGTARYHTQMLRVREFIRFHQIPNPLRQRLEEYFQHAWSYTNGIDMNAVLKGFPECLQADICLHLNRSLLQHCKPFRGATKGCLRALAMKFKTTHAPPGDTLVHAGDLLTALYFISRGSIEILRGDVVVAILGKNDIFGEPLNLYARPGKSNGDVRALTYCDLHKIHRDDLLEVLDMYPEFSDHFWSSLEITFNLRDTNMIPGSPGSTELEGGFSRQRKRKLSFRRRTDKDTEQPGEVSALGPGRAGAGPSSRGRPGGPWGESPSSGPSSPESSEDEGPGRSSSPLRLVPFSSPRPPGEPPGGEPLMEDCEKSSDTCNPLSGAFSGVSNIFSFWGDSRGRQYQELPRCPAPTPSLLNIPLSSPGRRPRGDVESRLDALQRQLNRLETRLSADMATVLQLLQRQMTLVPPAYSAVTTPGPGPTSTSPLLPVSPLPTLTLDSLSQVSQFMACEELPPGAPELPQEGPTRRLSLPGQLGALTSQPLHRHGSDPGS

Compound	hERG current change (%, negative = inhibition) at 10uM [%]
Nc1c(-c2ccccc2Cl)cnn1-c1cccc([N+](=O)[O-])c1	-49.4
COc1cc(-c2noc(C3CCCN(S(=O)(=O)c4cccc(Cl)c4)C3)n2)cc(OC)c1OC (stereo not shown)	-1.7
O=C(NCc1ccccc1)C1CCN(S(=O)(=O)c2cc([N+](=O)[O-])ccc2Cl)CC1	-7.61
O=C(NCCCO)c1ccc2[nH]c3ccccc3c2c1	16.1
O=C(Oc1cc(-c2ccccc2)no1)c1ccc(Cl)cc1	3.62
COc1ccc(OC)c(/C=C2\SC(=S)N(NS(=O)(=O)c3ccccc3)C2=O)c1	-4.44
CC(C)c1ccc2c(c1)C1(NN=C(c3ccccc3)S1)C(=O)N2 (stereo not shown)	7.69
CCn1c(/C=C/c2c(C)[nH]c3ccccc23)nc2ccccc2c1=O	-2.71
Cc1c(Cl)cccc1NS(=O)(=O)c1ccc2c(c1)C1C=CCC1C(c1ccc(C(=O)O)cc1)N2 (stereo not shown)	34.3
CCOc1ccccc1/C=C(/NC(=O)c1ccccc1)C(=O)NC(C)c1ccccc1 (stereo not shown)	-16.1
O=C(c1cnn2c(C(F)F)cc(C3CC3)nc12)N1CCOCC1	5.6
C=C1C(=O)O[C@@H]2C[C@@H](C)[C@@H]3C4OC4C(=O)[C@@]3(C)[C@@H](O)[C@H]12 (stereo partly shown)	0.664
O=C(/C=C/c1ccco1)NCCc1ccc(F)cc1	17.7
Cc1nn(-c2cccc([N+](=O)[O-])c2)c(N)c1-c1ccccc1	-68.7
O=S(=O)(Nc1nc2ccccc2[nH]1)c1ccc2ccccc2c1	10.3
O=C(Cc1ccc([N+](=O)[O-])cc1)NNC(=O)c1ccc2c(c1)OCO2	-3.15
CC1Oc2ccccc2C=C1/C=N/Nc1ccc(C(=O)O)cc1 (stereo not shown)	8.16
O=C(Nc1ccccc1C(=O)N1CCCCC1)NC1CCCCC1	-5.88
CN1CCN(C(=O)CN2C(=O)CC(C)(C)S(=O)(=O)c3ccccc32)CC1	21.8
C#CCN1C(=O)S/C(=C\c2ccc(-c3ccc(C(=O)O)cc3C)o2)C1=O	12.8
Cc1ccc(C)c(N2CCN(C(=S)NC3CCCCC3)CC2)c1	-9.3
CCOc1ccc2[nH]c(C(=O)N/N=C/c3ccccc3OC)cc2c1	37.4
CCc1cccc2c1NC(=O)C21OCCO1	18.8
CCc1cccc(C)c1N1C(=O)CC(C)(C)CC1=O	16.5
O=C(c1ccc(F)cc1)c1c[nH]c(C(=O)NCCCN2CCOCC2)c1	-21
C/C(=N\OC(=O)c1cccc(C(F)(F)F)c1)c1sc(-c2ccccc2)nc1C	7.94
COc1ccnc(N=CNOCc2cccc(Cl)c2Cl)c1C#N	-12
O=C(O)Cc1ccc(C(=O)c2ccccc2)s1	6.1

Compound	hERG current change (%, negative = inhibition) at 10uM [%]
Cc1ccc(NC(=O)CCC(=O)N/N=C/c2cccs2)cc1	-14.3
CCOc1ccc(/C(O)=C2/C(=O)C(=O)N(CCCN3CCOCC3)C2c2ccc(F)cc2)cc1C (stereo not shown)	17.9
COc1ccc(NC(=O)CCNS(=O)(=O)c2cc(Br)cnc2N)c(OC)c1	8.51
CCOc1cccc(C(=O)Nc2nnc(-c3cccs3)s2)c1	-0.326
CC(=O)c1cccc(OCC(O)CN2CCN(C(=O)c3ccco3)CC2)c1 (stereo not shown)	-2.19
O=C(O)c1ccc(N2C(=O)CC(SC(=NCc3ccc4c(c3)OCO4)Nc3ccccc3)C2=O)cc1 (stereo not shown)	13.9
O=C(OCC(=O)N1CCCC1)c1ccc(Cl)nc1	-2.32
O=C1NCCc2cc3c(cc21)OCO3	5.31
COc1ccc(-n2c(C)cc(C(=O)COc3ccc(-n4cnnn4)cc3)c2C)cc1	3.05
CCCN(C(=O)c1cc(S(=O)(=O)N(C)c2ccc(OCC)cc2)ccc1C)C1CCS(=O)(=O)C1 (stereo not shown)	-27.6
CCCNC(=O)CN(Cc1ccco1)S(=O)(=O)c1ccc(OCC)cc1	-36.7
COc1ccc(/C=C/C2=NC(=C\N(C)C)/C(=O)O2)cc1	-37.6
CC1CCCN(S(=O)(=O)c2ccc(Br)s2)C1 (stereo not shown)	-8.65
CCn1c(=O)c(NC(=O)c2ccccc2)c2n(c1=S)CCCCC2	2.77
CCCN(CCC)C(=O)C1CCCN1S(=O)(=O)c1cccc2nsnc12 (stereo not shown)	4.27
O=C(C1CC(=O)N(C2CCCC2)C1)N1CCN(c2ccc(F)cc2)CC1 (stereo not shown)	-17.7
O=C(Nc1ccc2c(c1)OCCO2)c1ccc(Cl)c(S(=O)(=O)N2CCOCC2)c1	-32.3
CCC/C=C(\CCC)C(NS(=O)(=O)c1ccc(C(F)(F)F)cc1)c1ccccc1 (stereo not shown)	15.5
COc1ccccc1NC(=O)c1ccc(CSc2ncccn2)cc1	6.1
Cc1ccccc1OCc1nnc(SCC(=O)Nc2ccc3nc(SCC(=O)Nc4ccccc4)sc3c2)n1C	8.63
CCOC(=O)Cc1csc(NC(=O)C(C)Oc2ccc3c(C)cc(=O)oc3c2)n1 (stereo not shown)	-35.2
CC1(C)NC(=O)N(CCCOc2ccccc2Br)C1=O	6.22
COc1ccc(NC(=O)CC#N)cc1OC	9.19
C=CCNC(=S)NNc1nc2c(c(=O)[nH]1)C1(CCCCC1)Cc1ccccc1-2	13.7
CC(NC(=O)C1(C)CC1(Br)Br)C(C)(C)C (stereo not shown)	-19.1
O=C(NCCc1c[nH]c2ccccc12)C(=O)NCC1OCCN1S(=O)(=O)c1ccc(Cl)cc1 (stereo not shown)	-15.9
N#C/C(=C\c1ccc(OC(=O)c2cccs2)cc1)c1nc2ccccc2[nH]1	10.8
